Over roughly 110,000 compounds, “z-score” has its median near -0.1; the highest 2% begin near 2. This is one part of the list.

In the experiment the target is Metabotropic glutamate receptor 8 (Rattus norvegicus) (UniProt P70579). As to the kind of experiment: mGluR8 Gi/Go-coupled signaling modulation – cell-based, rat, thallium flux, HTS, primary screen (AID 488969). The conditions noted are these: HEK293 rat mGluR8, GIRK (G protein-gated inwardly rectifying potassium channel) thallium flux, FluoZin2; at 10 µM; stronger effect = higher value; submaximal glutamate (EC20) added with thallium.
UniProt P70579, sequence (P70579 whole entry, looked up): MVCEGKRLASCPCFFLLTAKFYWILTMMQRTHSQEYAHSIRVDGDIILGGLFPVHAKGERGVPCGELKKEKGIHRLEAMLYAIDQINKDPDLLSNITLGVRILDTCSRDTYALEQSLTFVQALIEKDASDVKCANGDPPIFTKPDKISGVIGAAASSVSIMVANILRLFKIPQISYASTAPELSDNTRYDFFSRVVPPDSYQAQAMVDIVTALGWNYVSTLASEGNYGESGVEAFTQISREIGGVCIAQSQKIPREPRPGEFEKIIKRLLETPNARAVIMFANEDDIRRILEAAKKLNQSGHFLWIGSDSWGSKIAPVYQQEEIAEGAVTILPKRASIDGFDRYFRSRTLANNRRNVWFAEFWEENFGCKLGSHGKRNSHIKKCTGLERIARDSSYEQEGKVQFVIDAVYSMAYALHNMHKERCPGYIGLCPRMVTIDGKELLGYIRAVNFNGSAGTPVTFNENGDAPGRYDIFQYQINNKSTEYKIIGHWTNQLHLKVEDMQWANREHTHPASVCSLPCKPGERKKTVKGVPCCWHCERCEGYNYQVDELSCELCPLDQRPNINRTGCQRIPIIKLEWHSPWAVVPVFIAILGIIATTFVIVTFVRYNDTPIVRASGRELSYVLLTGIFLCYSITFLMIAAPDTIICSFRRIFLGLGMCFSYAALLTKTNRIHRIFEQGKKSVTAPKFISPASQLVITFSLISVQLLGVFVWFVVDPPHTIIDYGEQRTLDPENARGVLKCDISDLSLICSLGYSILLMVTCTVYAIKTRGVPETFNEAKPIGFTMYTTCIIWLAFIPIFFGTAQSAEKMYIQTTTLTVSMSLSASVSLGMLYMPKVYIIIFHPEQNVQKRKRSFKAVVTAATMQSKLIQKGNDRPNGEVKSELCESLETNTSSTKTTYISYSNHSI
In turn, `C=C(C)CC1Nc2ccccc2NC1CC(=C)C` (stereo not drawn) gave a z-score of -0.434.
For the compound `COc1ccc(CC(=O)Nc2cc(Cl)ccc2O)cc1`, the z-score was -0.802.
On to `Cc1ccc(CNC(=O)c2cn(C)c(=O)c3c2c2ccccc2n3C)o1`, for which the z-score is -0.046.
Compound `CCn1c(SCC(=O)N/N=C/c2ccc(O)c(OC)c2)nc2ccccc21` gave a z-score of 0.0609.
The compound `CCCNC(=O)c1cc(S(=O)(=O)N2CCc3ccccc32)ccc1F` gave a z-score of -0.508.
Under `c1ccc2c(CSCCc3ccncc3)cccc2c1` stands -0.109.
In the case of `COc1ccc(/C=C2/SC(=O)N(CCNC(=O)C3COc4ccccc4O3)C2=O)cc1` (stereo not drawn), the z-score stood at 0.234.
Under `COC(=O)c1ccn(-c2nc(-c3ccco3)cc(C(F)(F)F)n2)n1` stands -0.739; under `COc1ccc(C(=O)Nc2ccc(C)cc2C(=O)c2ccccc2)cc1`, -0.758.
In turn, `O=C(Nc1ncnc2sc3c(c12)CCCCC3)c1ccco1` gave a z-score of -0.457.
Under `CC1CN(c2ccc(S(=O)(=O)N3CCOCC3)cn2)CC(C)O1` (stereo not drawn) stands 0.501.
`CC1CCCN(C(=O)c2cc(F)c(F)cc2Cl)C1` (stereo not drawn) came in with a z-score of -0.0397.
Compound `OCC1CCCN(C(=S)NCCc2ccccc2)C1` (stereo not drawn) returned a z-score of 0.429.
Compound `COc1ccccc1OCCCOc1ccc([N+](=O)[O-])cc1Cl` yielded a z-score of -0.192.
Compound `COc1cnn(-c2ccc(Br)cc2)c(=O)c1SCc1ccccc1` yielded a z-score of 0.0428.
The compound `COC(=O)c1cc(C#N)c(Oc2cccc(C)c2C)nc1C` registered a z-score of -0.232.
On to `COC(C(=O)NCc1ccccc1C)c1ccccc1` (stereo not drawn), for which the z-score was -0.267.
Regarding `CC(C)N1C(=O)S/C(=C/c2ccc(Sc3nc4ccccc4[nH]3)o2)C1=O`, the z-score is -0.0626.
The compound `CCOC(=O)c1nn(-c2ccccc2)c(C)c1C(C)=O` had a z-score of -0.0737.
For the compound `CCOC(=O)C1=C(C)NC(=O)NC1c1ccc(Cl)cc1Cl` (stereo not drawn), the z-score was 0.0696.
For the compound `CC(=O)c1cc(F)c(N2CCCCCC2)cc1C`, the z-score is 0.0588.
The compound `Cc1ccc(NC(=O)c2sc3nc4c(c(-c5ccco5)c3c2N)CCC4)cc1` yielded a z-score of -0.382.
Compound `COc1cc(/C=N/NC(=O)CCN2CCN(C(c3ccccc3)c3ccccc3)CC2)ccc1O` had a z-score of -0.552.
Under `Cc1ccc(S(=O)(=O)NC(=NCC(=O)O)c2ccc(F)cc2)cc1` stands 0.317; under `Cc1n[nH]c(C)c1S(=O)(=O)N(CC(=O)N1CCc2ccccc21)c1ccc(C(C)C)cc1`, 0.497; under `Cn1c(=O)c(Oc2cc(Cl)cc(Cl)c2)nc2ccccc21`, 0.0246.
Take `CCN(CCCNC(=O)CCc1nc(-c2ccc(OC)cc2)no1)c1cccc(C)c1`: the z-score is -0.324.
Under `CCOC(=O)c1c(C)[nH]c(C2=NNC(=Nc3ccccc3OC)SC2)c1C` stands -0.32; under `CCOC(=O)c1ccc(COC(=O)CNC(=O)CNC(=O)c2ccc(OC)cc2)o1`, 0.127; under `CCCC1C2C(=O)N(c3ccccc3OC)C(=O)C2ON1c1ccccc1` (stereo not drawn), -0.179.
Under `CS(=O)(=O)N1Cc2ccccc2CC1C(=O)OCC(=O)Nc1ccc2ccccc2c1` (stereo not drawn) stands 0.0644.
As for `O=C(Nc1ccccc1F)c1ccc(-n2cncn2)nc1`, the z-score is -0.0684.
As for `CC(C)Cc1nc(N2CCCCC2)c(C#N)c2c1CCC2`, the z-score turned out to be 0.76.
Consider `CCOC(=O)c1cc2c(C(F)(F)F)cc(-c3ccccc3)nc2o1`, for which the z-score is -0.307.
As to `O=S(=O)(Cc1ccccc1)c1ccccc1-c1nnc(-c2ccccc2)o1`, the z-score worked out at 0.176.
Regarding `Cn1c(CC(=O)Nc2ccc(F)cc2)c(Sc2ccccc2)c2ccccc21`, the z-score was -0.239.
Compound `Cc1noc(C)c1COc1ccc(C(=O)OCC(=O)N2CC3(C)CC2CC(C)(C)C3)cc1` (stereo not drawn) gave a z-score of -0.932.
Under `CCOCCCNC(=O)C(NC(=O)c1ccc(=O)[nH]c1)c1ccc(C)cc1` (stereo not drawn) stands -0.145.
Under `O=C(c1cc2nc(-c3ccc(F)cc3)cc(C(F)(F)F)n2n1)N1CCCC1` stands -0.141.
`Cc1cccc(NS(=O)(=O)c2cccs2)c1` displayed a z-score of 0.182.
On to `Cc1ccccc1OCc1nc(-c2ccc(NC(=O)c3ccc4c(c3)OCO4)cc2)no1`, for which the z-score is -0.106.
Consider `CCC(CC)COC(=O)C(C#N)c1nc2ccccc2nc1N1CCN(CC)CC1` (stereo not drawn), for which the z-score is 2.72.
Consider `CCc1nnc(NC(=O)CSc2nc(-c3ccccc3)c(-c3ccccc3)o2)s1`, for which the z-score is -0.14.
Under `Cc1ccc(S(=O)(=O)N(C)c2ccccc2C(=O)NC2CCCC2)cc1` stands 0.54; under `COCCCNCCCCOc1ccc(C)cc1[N+](=O)[O-]`, -0.0288; under `CC(C)c1nnc(N2C(=O)c3oc4ccccc4c(=O)c3C2c2ccco2)s1` (stereo not drawn), -0.437.
`C=CC[N+](C)(C)C/C(Cl)=C(\Cl)c1ccccc1` returned a z-score of 1.08.
In the case of `N#Cc1cnc(SCCc2ccccc2)nc1N`, the z-score was -0.189.
`Cc1cccc(N(C(=O)Cn2nnc3ccccc32)C(C(=O)NC(C)(C)C)c2ccsc2)c1` (stereo not drawn) registered a z-score of -0.144.
With `Cc1cccc(C)c1NC(=O)CS(=O)CC(=O)Nc1ccc(F)cc1F` (stereo not drawn), the z-score was -0.034.
The compound `CCCN1C2=C(C(=O)CC(C)(C)C2)C(c2ccc(F)cc2)C2=C1c1ccccc1C2=O` (stereo not drawn) gave a z-score of -0.114.
Under `CN(C)c1ccc(/C=C(\C#N)C(=O)NCc2ccco2)cc1` stands -0.253.
Under `CC(=O)NC1C(=O)SC1(C)C` (stereo not drawn) stands 1.19; under `Cc1ccc(NC(=S)NC(=O)c2c(-c3ccccc3Cl)noc2C)cc1`, 0.74.
`COc1ccc(C(=O)NCc2nnc(SCC(=O)N3CCC(C)CC3)o2)cc1OC` had a z-score of -0.254.
For the compound `CC1CC1C(=O)OCC(=O)NC(=O)NCc1ccco1` (stereo not drawn), the z-score is -0.131.
The compound `O=C1CC(Nc2ccccc2)C(=O)N1CCc1ccccc1` (stereo not drawn) had a z-score of -0.213.
The compound `CCOC(=O)C1CCN(C(=O)C2(NC(=O)Nc3ccccc3Cl)CCCCC2)CC1` had a z-score of -0.0239.
As to `O=C(Nc1ccon1)c1ccccc1Cl`, the z-score is -0.0993.
Under `COC(=O)c1cc(Br)c(=O)n(CCN2CCCC2)c1` stands 0.122; under `Cc1cc(C)c(C(=O)COC(=O)c2cc([N+](=O)[O-])ccc2NCCO)cc1C`, -0.401; under `CCOc1cccc(CNn2cnnc2)c1OCc1ccccc1Cl`, -0.0444.
Under `CCOC(=O)CNS(=O)(=O)c1ccc(C(=O)O)cc1` stands 0.207; under `O=Cc1ccccc1Oc1ccccc1`, -0.00941; under `O=[N+]([O-])c1cc(C(F)(F)F)cc([N+](=O)[O-])c1NCc1cccnc1`, -0.229.
Under `COc1cccc(OC)c1OCC(O)CN1CCN(c2ccccc2)CC1` (stereo not drawn) stands 0.487; under `Cc1nc(NC(=O)c2ccc(F)cc2)nc2cc3c(cc12)OCO3`, -0.174; under `O=C(CN1C(=O)c2cccc3cccc1c23)Nc1cccnc1`, -0.122.
For the compound `CCc1ccc2nc3nc(C)cc(C)c3c(N)c2c1`, the z-score was 0.359.
For the compound `Cc1ccc(S(=O)(=O)c2c(N)n(-c3ccccc3)c3nc4ccccc4nc23)cc1`, the z-score is -0.0323.
As to `CCn1c(CCNC(=O)c2ccc(F)cc2)nc2ccccc21`, the z-score is 0.16.
Compound `CCC(C)(C)n1nnnc1C(C(C)C)N(CCN1CCOCC1)Cc1cc2cccc(C)c2[nH]c1=O` (stereo not drawn) had a z-score of -0.0184.
In turn, `CCCc1nc(N)c(C#N)c(-c2ccco2)c1CC` came in with a z-score of 0.813.
Consider `CCN(CC)C(=O)c1n[nH]c(=O)c2ccccc12`, for which the z-score amounted to 0.0104.
As to `CC(C)(C)n1nnnc1CN1CCC(NC(=O)NC2CCCCC2)CC1`, the z-score is -0.255.
Take `CCc1ccc(NC(=O)Cn2c(=O)oc3cc(S(=O)(=O)N4CCOCC4)ccc32)cc1`: the z-score stood at 0.578.
As for `Cc1ccc(C(=O)Nc2nc(=O)n(C)s2)cc1`, the z-score is -0.309.
`O=C(NNC(=O)c1cnccn1)c1cccc([N+](=O)[O-])c1` showed a z-score of -0.417.
As for `COCCCNCCCCOc1ccc(Br)cc1C`, the z-score turned out to be 0.433.
Under `Cc1ccc(Nc2nc(N)nc(CSCCO)n2)cc1` stands 0.139; under `Cc1ccc(S(=O)(=O)/N=C(\CN2CCOCC2)N2CCOCC2)cc1`, -0.0131; under `CCCCC(=O)NCCNC(=O)c1cc(OCC(F)(F)F)ccc1OCC(F)(F)F`, 0.45.
Consider `COc1ccc(CNC(=O)c2csc(Cc3ccccc3)n2)cc1`, for which the z-score is -0.391.
Take `O=C(CCN1C(=O)c2ccccc2C1=O)C1=NN[C@@H]2C(=O)N(c3ccc(F)cc3)C(=O)[C@H]12`: the z-score is 0.122.
For `N#C/C(=C1\C(=O)Nc2c(Cl)cc(Cl)cc21)c1nnc2n1CCCCC2`, the z-score is -0.636.
`Cc1ccc(S(=O)(=O)/C(C#N)=C/c2c(N3CCN(C)CC3)nc3c(C)cccn3c2=O)cc1` registered a z-score of -0.809.
Under `Cn1c(Cn2nnc3ccccc32)nnc1SCC(=O)c1ccccc1F` stands -1.15.
The compound `CCN(Cc1ccccc1)c1ccc(/C=N/NC(=O)c2cccc(S(=O)(=O)N3CCOCC3)c2)cc1` yielded a z-score of -0.523.
For the compound `CCOC(=O)c1ccccc1N1C(=O)C2Sc3[nH]c(=O)sc3C(/C=C/c3ccccc3)C2C1=O` (stereo not drawn), the z-score was -0.495.
Under `CCNc1nc(OC)nc(Oc2ccc(C(=O)OC)cc2)n1` stands -0.368; under `O=C(c1ccco1)N1CCN(C(c2cccs2)c2nnnn2C2CCCC2)CC1` (stereo not drawn), 0.254.
Under `Cn1c(=O)c2c3c(sc2n2cnnc12)CCC3` stands -0.152; under `CC(C(=O)Nc1ccccc1F)N1C(=O)c2ccccc2C1=O` (stereo not drawn), 1.07.
Compound `COc1ccc(-n2c(C)csc2=S)cc1` showed a z-score of 0.000578.
Under `NC(=O)COc1cccc2cccnc12` stands 0.764.
On to `COC(=O)N/N=C/c1ccc([N+](=O)[O-])o1`, for which the z-score is -0.0263.
Take `Nc1nonc1C(=O)NCCNCc1ccccc1`: the z-score turned out to be 0.0798.
`Cc1ccc2nc(-c3ccc4c(c3)OCCO4)cc(C(=O)O)c2c1` yielded a z-score of -1.44.
`CC(C)CC(NC(=O)c1ccc(Cl)cc1)C(=O)O` (stereo not drawn) had a z-score of -0.0425.
In the case of `COc1ccc(Cn2nnnc2CN2CCc3ccccc32)cc1`, the z-score was -0.875.
`S=c1[nH]nc(COc2ccccc2)n1/N=C/c1cccnc1` yielded a z-score of -0.289.
`CCOC(=O)Cn1cnc2c(nnn2Cc2ccc(Cl)cc2)c1=O` had a z-score of -0.202.
Regarding `CN(C)c1nc(N(C)C)nc(N2CCCCC2)n1`, the z-score was -0.209.
In the case of `O=[N+]([O-])c1ccc(/C=N/Nc2cc(Cl)nc(-c3ccccc3)n2)cc1`, the z-score came out at 0.262.
On to `CCOC(=O)CCn1c(CC(=O)OCC)nc2ccccc21`, for which the z-score was found to be 0.435.
Under `O=C(CSc1nnnn1C1CCCCC1)Nc1nc2c(s1)CCCC2` stands -0.656; under `COc1cccc(C2CC(c3cccs3)=NN2C(=O)CSC2=NN3CCCC(=O)N=C3S2)c1OC` (stereo not drawn), 1.55.
Under `CCn1c(SC)nnc1-c1ccc(S(=O)(=O)N2CCCCC2)cc1` stands 0.484.
With `CCSc1nnc(NC(=O)c2cc(-c3ccc(C)c(C)c3O)n[nH]2)s1`, the z-score was -0.0151.
Under `CCCc1nc(SCc2cccnc2)c2c(=O)n(C)c(=O)n(C)c2n1` stands -0.67.
The compound `COc1cccc(C2CC3(CC(C)(C)NC(=S)N3)Oc3cc(O)ccc32)c1` (stereo not drawn) gave a z-score of 0.0131.
In the case of `Cc1ccc(Cn2ccc(NC(=O)c3cc(-c4ccc(Cl)cc4)on3)n2)cc1`, the z-score was -0.187.
As to `CC(C(=O)NC(=O)NCc1ccccc1)N1C(=O)c2ccccc2C1=O` (stereo not drawn), the z-score is -0.0608.
